From PubChem BioAssay (NCI)
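Exposure lasted 48 hours, with cells grown in 96-well plates and compounds tested at five concentrations. Abbreviation: GI50, concentration required for 50% inhibition of growth. TGI: total growth inhibition.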

System: NCI-H322M lung
Assay: NCI tumour cell line growth inhibition, 48 h

Structure (SMILES) | TGI [µM] | GI50 [µM]
N#Cc1c(-c2ccccc2)c(N=Nc2ccc(F)cc2)c(=O)n2c1[nH]c1ccccc12 | 7.18 | 
CS(=O)(=O)c1nc(-c2cc3c(c(S(C)(=O)=O)n2)CCCC3)cc2c1CCCC2 | > 100 | 
COC(=O)C1C(C)N1C (stereo not drawn) | > 100 | 
CN(C)C(=O)/N=c1\ss/c(=N\C(=S)N(C)C)n1-c1ccccc1 | > 100 | 
COc1ccc(/C(C)=C(\c2ccc(Cl)cc2)c2ccc(OCCN3CCCC3)cc2)cc1F | 6.24 | 3.07
O=C1C(=O)N(C(=O)c2ccc(Cl)c(Cl)c2)c2ccc(Cl)cc21 | > 100 | 
CN(CCCNC(=O)c1cn(C)c2c1ccc1cc(Cl)c(Cl)cc12)CCCNC(=O)c1cn(C)c2c1ccc1cc(Cl)c(Cl)cc12 | 28 | 
N#CC(=S)Nc1ccc(Cl)c(Cl)c1 | > 76.4 | 
NC1CC(=O)c2c(Cl)sc(Cl)c21 (stereo not drawn) | 23.8 | 
Cc1cc(O)c(C(C)C)cc1CN1CCCCC1 | > 100 | 
N.N.N.N.N.N.[I-].[Os] | > 100 | > 100
OCC1NCC(O)C(O)C1O (stereo not drawn) | > 100 | 
C=C(C)CC1=C(OCC)C(OC)(OCC)C1=O (stereo not drawn) | > 100 | 
[O-][N+](CCO)(CCO)c1ncnc2nc[nH]c12 | > 100 | 
COC(=O)C(=O)c1c2ccccc2n2ccc3c4ccccc4[nH]c3c12 | > 10 | 
NS(=O)(=O)c1ccc(NNc2c3ccccc3nc3ccccc23)cc1 | 21.5 | 
COc1ccc(/C=C(\C#N)c2nc(N)nc(N3N=C(C)CC3(C)C)n2)c(O)c1 | 45.9 | 
Clc1ccc(Nc2nc(Cl)c3[nH]cnc3n2)cc1Cl | > 100 | 
O=C1N=C(c2ccccc2)OC1C(=O)c1ccccc1 (stereo not drawn) | > 100 | 
CCOC(=O)c1ccc(N(CCOS(C)(=O)=O)CCOS(C)(=O)=O)cc1C | > 100 | > 100
CCOC(=O)/C(=C\NCC(OCC)OCC)c1nc2ccccc2[nH]1 | > 100 | 
C=C1C(=O)O[C@H]2[C@H]1CC/C(COC(=O)CCCCCCCCC(=O)OC/C1=C/CC[C@@]3(C)O[C@H]3[C@H]3OC(=O)C(=C)[C@@H]3CC1)=C\CC[C@@]1(C)O[C@@H]21 | 10.6 | 2.81
Nc1ncnc(NC2C=C(CO)C(O)C2O)c1[N+](=O)[O-] (stereo not drawn) | > 100 | 
Cc1cc2c(c(C=Nc3ccc([N+](=O)[O-])cc3)c1)OC1(C=C2)Oc2ccccc2C(=O)N1C (stereo not drawn) | 36.1 | 
